Results from patent publication US20110166106A1, “ARTEMISININ AND DERIVATIVES THEREOF AS ANTIVIRALS” (priority 2008, published 2011).

System: Infected and uninfected HSB-2 cells
Assay: Caspase-Glo 3/7 apoptosis assay
Assay type: cell-based
Conditions: 3 days incubation, 0.5 μM to 15 μM

With C[C@H]1[C@H](OC(=O)CCC(=O)O)O[C@@H]2O[C@@]3(C)CC[C@H]4[C@H](C)CC[C@@H]1[C@@]24OO3 [ART, artesunate] the apoptosis signals induced was “very low”.
